The list shows a part of the results. Sequences were assembled here from the parent chain. Values near 0.05 are background.
B1: TEV protease; numbered along this chain (parent)
chain: MGESLFKGPRDYNPISSSICHLTNESDGHTTSLYGIGFGPFIITNKHLFRRNNGTLVVQSLHGVFKVKDTTTLQQHLVDGRDMIIIRMPKDFPPFPQKLKFREPQREERICLVTTNFQTKSMSSMVSDTSCTFPSGDGIFWKHWIQTKDGQCGSPLVSTRDGFIVGIHSASNFTNTNNYFTSVPKNFMELLTNQEAQQWVSGWRLNADSVLWGGHKVFMVKPEEPFQPVKEATQL

Variants of: B1
Test: raw area under fraction-flipped curve 0-4 h after induction (AUC4h, not background-subtracted), DNA-recorder readout of cleavage of the substrate (dimensionless); higher = more cleavage of the substrate by the protease variant
Conditions: temperature: 34 °C; time window: 0-4 h after rhamnose induction
Method: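 In vivo DNA recorder in E. coli TOP10(DE3) ΔrhaA at 34 °C. Each TEVp single-site mutant (parent TEVp 0) is paired with a single-site variant of the 7-mer TEVs (canonical ENLYFQ|S). The substrate sits between flexible linkers in a Bxb1-sfGFP-TEVs-SsrA fusion, so cleavage stabilises Bxb1 and speeds flipping of a recombination array, read by NGS. The value is the raw area under the fraction-flipped curve over 0-4 h after rhamnose induction (AUC4h), with ≥20 reads per time point. It is not background-subtracted; inactive controls average about 0.047.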
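Note: Bxb1 expression induced with 0.2% (w/v) L-rhamnose at OD600 near 0.5, cultures sampled hourly, flipped fraction per protease–substrate barcode pair counted by paired-end Illumina sequencing.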

Variant	area with substrate ENAYFQS	area with substrate ENCYFQS	area with substrate ENDYFQS	area with substrate ENFYFQS	area with substrate ENHYFQS	area with substrate ENKYFQS	area with substrate ENMYFQS	area with substrate ENNYFQS	area with substrate ENQYFQS	area with substrate ENSYFQS	area with substrate ENTYFQS	area with substrate ENVYFQS	area with substrate ENWYFQS	area with substrate ENEYFQS	area with substrate ENGYFQS	area with substrate ENRYFQS	area with substrate ENPYFQS	area with substrate ENIYFQS	area with substrate ENYYFQS
G80I	0.0437	0.0563	0.0523	0.0514	0.0612	0.0656	0.0699	0.0613	0.06	0.04	0.0571	0.109	0.0503	–	–	–	–	–	–
G80M	0.0579	0.0686	0.0645	0.0596	–	–	0.0712	0.0569	0.0716	0.0552	0.0633	–	–	0.0611	0.0652	0.0506	–	–	–
G80Q	0.053	0.0678	0.0543	0.0679	0.0606	0.0632	0.0719	0.0689	0.0619	0.0569	0.0669	0.0708	0.0454	0.0592	0.064	0.0589	0.0539	–	–
G80V	0.0537	0.068	0.0483	0.0595	–	0.0594	–	–	0.0555	0.0518	0.0665	0.0849	0.0098	0.0758	0.0648	0.0539	0.0664	0.127	–
G80W	0.0601	0.0517	0.0697	0.0448	0.0518	0.0635	–	0.0466	0.055	0.0827	–	0.0762	–	0.0488	0.0596	–	0.0643	0.117	0.0542
R81H	0.0553	0.0739	–	–	0.0571	0.0738	0.0715	0.0585	0.0642	0.0683	0.0557	–	–	0.066	0.0657	0.0509	0.0663	–	–
M83F	0.058	–	0.073	0.0616	0.0623	–	–	–	–	0.0648	–	–	–	0.0562	0.0499	0.047	0.0633	–	0.058
I85L	0.0674	0.0687	–	0.068	–	0.0564	0.0857	0.0586	0.0536	0.0597	0.0471	–	–	0.0719	–	0.0603	0.0586	–	–
M88F	0.0302	0.0628	0.0573	–	–	–	–	–	–	0.0508	–	–	0.0035	0.0525	0.0362	0.059	–	0.0865	–
M88N	0.0399	0.0581	0.057	0.0416	–	–	–	0.0456	0.0435	0.0462	0.0459	–	0.0154	0.0482	0.061	0.044	0.0382	0.0929	–
M88R	0.0532	0.0495	0.0458	–	–	–	–	–	0.0372	–	–	0.0505	–	0.0477	–	0.0573	–	0.0695	–
M88T	0.0824	0.0846	–	0.0624	0.0753	–	–	0.0673	0.0547	0.0253	–	–	–	–	–	0.0557	–	0.0983	–
M88V	0.0513	0.0459	0.0573	0.0582	0.0424	0.0795	–	0.037	0.0593	0.064	0.0639	0.0735	–	0.0633	0.0618	–	0.0469	0.091	0.0556
F95Y	0.0588	–	0.0606	0.041	0.0527	–	–	0.0585	0.0503	–	0.0665	–	0.0421	–	0.0585	0.062	–	–	–
P96A	0.0461	0.0948	0.0581	0.0548	0.0546	–	–	0.0525	0.0756	0.0641	0.0699	–	–	–	0.0629	0.0442	–	0.11	0.0382
P96C	0.0575	0.0712	0.0612	–	0.0787	0.0411	0.105	0.0279	0.058	0.0536	0.0952	–	0.0698	0.0582	0.0604	0.0472	0.0682	–	0.0596
P96E	0.065	0.0529	0.0636	0.0681	0.0802	0.0776	–	0.0625	–	0.0646	0.0632	0.0681	0.014	0.0596	0.0641	0.0572	0.0472	0.102	–
P96H	0.0448	0.071	0.0623	–	0.0532	0.062	0.0901	–	0.0577	0.0586	0.0649	0.0765	–	0.067	–	0.0715	0.0711	0.0658	0.0648
P96T	0.0714	–	0.0637	–	–	0.0642	–	–	–	0.0868	–	–	–	–	–	–	0.0514	0.103	–
P96W	0.0497	–	0.0511	0.0542	–	–	–	0.0641	–	0.0045	0.0603	0.0773	–	0.0631	–	–	–	0.101	–
K98W	0.055	0.0383	0.0452	0.0638	0.0515	–	0.0796	0.0561	0.0651	0.0629	–	0.0913	–	0.0633	0.0628	–	–	0.0975	0.0643
R102G	0.0421	0.0511	0.0526	–	0.0531	–	0.0609	0.0445	0.0498	0.0505	–	0.0627	0.0461	0.0502	0.0494	0.041	–	0.0552	–
P104A	0.0505	–	0.0631	0.0609	0.0558	0.0433	–	0.054	0.0611	0.0601	–	0.0705	–	0.0701	0.0584	–	0.02	–	0.0541
P104C	0.0518	0.0597	0.0569	0.0612	0.0611	0.0549	0.0559	0.035	0.0587	0.0603	0.0418	0.0663	–	0.0627	0.0546	–	0.0516	0.078	–
P104N	0.0475	–	0.0417	–	0.0477	0.0417	0.061	–	0.0588	0.0516	–	0.0499	–	0.0441	0.0391	–	0.0362	0.0647	–
P104S	0.0474	0.0524	0.0616	–	0.0576	0.0431	0.0499	0.0547	0.0378	0.0421	0.0506	0.0554	0.0452	0.0534	0.0534	0.0339	0.0311	–	–
P104V	0.0716	–	0.0269	–	–	0.0694	0.0499	0.0435	0.0648	0.0653	0.0539	0.0579	–	0.0562	–	–	0.0629	0.112	–

From the supplement of paper PMC12217912
